{"source": "patent US20210171576A1", "about": "“METHODS FOR TREATING CANCER WITH ACYLDEPSIPEPTIDE ANALOGS” (priority 2018, published 2021)", "type_in_all_cases": "cell-based, human", "key": {"MDA-MB-231 CLPP-KD cells [1]": {"test_system": "MDA-MB-231 CLPP-KD cells", "experiment": "Cytotoxicity test, SRB staining, 72 hours", "conditions": "MDA-MB-231 CLPP-KD vs WT"}, "MDA-MB-231 CLPP-KD cells [2]": {"test_system": "MDA-MB-231 CLPP-KD cells", "experiment": "Scratch wound healing assay", "conditions": "100-500 nM, 48 hours, serum-free"}, "MDA-MB-231 WT cells": {"test_system": "MDA-MB-231 WT cells", "experiment": "Scratch wound healing assay", "conditions": "100-500 nM, 48 hours, serum-free"}}, "note": "Where a SMILES comes first, the peptide text is derived from it. Bridges are numbered along the chain shown (N, C = ends). [ ]: non-standard residue; d: D form. The star is where a group is joined. Phe(3,5-F2) = N[C@@H](Cc1cc(F)cc(F)c1)C(=O)O; Pro(4R-Me) = C[C@H]1CN[C@H](C(=O)O)C1; aThr = C[C@H](O)[C@H](N)C(=O)O; Pip = O=C(O)[C@@H]1CCCCN1; X1 = CCC/C=C/C=C/C(=O)*"}
{"smiles": "CCC/C=C/C=C/C(=O)N[C@@H](Cc1cc(F)cc(F)c1)C(=O)N[C@@H]1C(=O)N2CCC[C@H]2C(=O)N2CCCC[C@H]2C(=O)N[C@@H](C)C(=O)N2C[C@H](C)C[C@H]2C(=O)O[C@H]1C", "note": "[ADEP-14] (X1-[Phe(3,5-F2)][aThr]P[Pip]A[Pro(4R-Me)]; ester 2-C)", "values": [{"measurement": "lower response to induced cytotoxicity compared to MDA-MB-231 WT", "setting": "MDA-MB-231 CLPP-KD cells [1]", "result": 10, "unit": "×"}, {"measurement": "2D cell migration (scratch wound closure)", "setting": "MDA-MB-231 CLPP-KD cells [2]", "result": "unaffected"}, {"measurement": "2D cell migration (scratch wound closure)", "setting": "MDA-MB-231 WT cells", "result": "impaired 2D migration"}]}
